Test results taken from the supplement of paper PMC12423691.
Some of the results follow. Binding of human transcription factors and regulators to the viral nucleoprotein by AlphaScreen, crude cell-free proteins, amounts not normalised, one pass. Fold of the Venus control; higher = more signal. No active / inactive call. Single-pass screen; sequences are the whole Swiss-Prot entries looked up by name.

B1: MITF, O75030 (protein)
chain: MQSESGIVPDFEVGEEFHEEPKTYYELKSQPLKSSSSAEHPGASKPPISSSSMTSRILLRQQLMREQMQEQERREQQQKLQAAQFMQQRVPVSQTPAINVSVPTTLPSATQVPMEVLKVQTHLENPTKYHIQQAQRQQVKQYLSTTLANKHANQVLSLPCPNQPGDHVMPPVPGSSAPNSPMAMLTLNSNCEKEGFYKFEEQNRAESECPGMNTHSRASCMQMDDVIDDIISLESSYNEEILGLMDPALQMANTLPVSGNLIDLYGNQGLPPPGLTISNSCPANLPNIKRELTACIFPTESEARALAKERQKKDNHNLIERRRRFNINDRIKELGTLIPKSNDPDMRWNKGTILKASVDYIRKLQREQQRAKELENRQKKLEHANRHLLLRIQELEMQARAHGLSLIPSTGLCSPDLVNRIIKQEPVLENCSQDLLQHHADLTCTTTLDLTDGTITFNNNLGTGTEANQAYSVPTKMGSKLEDILMDDTLSPVGVTDPLLSSVSPGASKTSSRRSSMSMEETEHTC
B2: ZNF19, P17023 (protein)
chain: MAAMPLKAQYQEMVTFEDVAVHFTKTEWTGLSPAQRALYRSVMLENFGNLTALGYPVPKPALISLLERGDMAWGLEAQDDPPAERTKNVCKDVETNIDSESTLIQGISEERDGMMSHGQLKSVPQRTDFPETRNVEKHQDIPTVKNIQGKVPRIPCARKPFICEECGKSFSYFSYYARHQRIHTGEKPFECSECGKAFNGNSSLIRHQRIHTGERPYQCEECGRAFNDNANLIRHQRIHSGDRPYYCTECGNSFTSSSEFVIHQRIHTGEKPYECNECGKAFVGNSPLLRHQKIHTGEKPYECNECGKSFGRTSHLSQHQRIHTGEKPYSCKVCGQAFNFHTKLTRHQRIHSEEKPFDCVDCGKAFSAQEQLKRHLRIHTQESSYVCDECGKALTSKRNLHQHQRIHTGEKPYECSKYEKAFGTSSQLGHLEHVYSGEKPVLDICRFGLPEFFTPFYW
B3: PCGF6, Q9BYE7 (protein)
chain: MEGVAVVTAGSVGAAKTEGAAALPPPPPVSPPALTPAPAAGEEGPAPLSETGAPGCSGSRPPELEPERSLGRFRGRFEDEDEELEEEEELEEEEEEEEEDMSHFSLRLEGGRQDSEDEEERLINLSELTPYILCSICKGYLIDATTITECLHTFCKSCIVRHFYYSNRCPKCNIVVHQTQPLYNIRLDRQLQDIVYKLVINLEEREKKQMHDFYKERGLEVPKPAVPQPVPSSKGRSKKVLESVFRIPPELDMSLLLEFIGANEGTGHFKPLEKKFVRVSGEATIGHVEKFLRRKMGLDPACQVDIICGDHLLEQYQTLREIRRAIGDAAMQDGLLVLHYGLVVSPLKIT
B4: HEY2, Q9UBP5 (protein)
chain: MKRPCEETTSESDMDETIDVGSENNYSGQSTSSVIRLNSPTTTSQIMARKKRRGIIEKRRRDRINNSLSELRRLVPTAFEKQGSAKLEKAEILQMTVDHLKMLQATGGKGYFDAHALAMDFMSIGFRECLTEVARYLSSVEGLDSSDPLRVRLVSHLSTCATQREAAAMTSSMAHHHHPLHPHHWAAAFHHLPAALLQPNGLHASESTPCRLSTTSEVPPAHGSALLTATFAHADSALRMPSTGSVAPCVPPLSTSLLSLSATVHAAAAAATAAAHSFPLSFAGAFPMLPPNAAAAVAAATAISPPLSVSATSSPQQTSSGTNNKPYRPWGTEVGAF
B5: GATAD2B, Q8WXI9 (protein)
chain: MDRMTEDALRLNLLKRSLDPADERDDVLAKRLKMEGHEAMERLKMLALLKRKDLANLEVPHELPTKQDGSGVKGYEEKLNGNLRPHGDNRTAGRPGKENINDEPVDMSARRSEPERGRLTPSPDIIVLSDNEASSPRSSSRMEERLKAANLEMFKGKGIEERQQLIKQLRDELRLEEARLVLLKKLRQSQLQKENVVQKTPVVQNAASIVQPSPAHVGQQGLSKLPSRPGAQGVEPQNLRTLQGHSVIRSATNTTLPHMLMSQRVIAPNPAQLQGQRGPPKPGLVRTTTPNMNPAINYQPQSSSSVPCQRTTSSAIYMNLASHIQPGTVNRVSSPLPSPSAMTDAANSQAAAKLALRKQLEKTLLEIPPPKPPAPLLHFLPSAANSEFIYMVGLEEVVQSVIDSQGKSCASLLRVEPFVCAQCRTDFTPHWKQEKNGKILCEQCMTSNQKKALKAEHTNRLKNAFVKALQQEQEIEQRLQQQAALSPTTAPAVSSVSKQETIMRHHTLRQAPQPQSSLQRGIPTSARSMLSNFAQAPQLSVPGGLLGMPGVNIAYLNTGIGGHKGPSLADRQREYLLDMIPPRSISQSISGQK
B6: NR1H3, Q13133 (protein)
chain: MSLWLGAPVPDIPPDSAVELWKPGAQDASSQAQGGSSCILREEARMPHSAGGTAGVGLEAAEPTALLTRAEPPSEPTEIRPQKRKKGPAPKMLGNELCSVCGDKASGFHYNVLSCEGCKGFFRRSVIKGAHYICHSGGHCPMDTYMRRKCQECRLRKCRQAGMREECVLSEEQIRLKKLKRQEEEQAHATSLPPRASSPPQILPQLSPEQLGMIEKLVAAQQQCNRRSFSDRLRVTPWPMAPDPHSREARQQRFAHFTELAIVSVQEIVDFAKQLPGFLQLSREDQIALLKTSAIEVMLLETSRRYNPGSESITFLKDFSYNREDFAKAGLQVEFINPIFEFSRAMNELQLNDAEFALLIAISIFSADRPNVQDQLQVERLQHTYVEALHAYVSIHHPHDRLMFPRMLMKLVSLRTLSSVHSEQVFALRLQDKKLPPLLSEIWDVHE
B7: SOX8, P57073 (protein)
chain: MLDMSEARSQPPCSPSGTASSMSHVEDSDSDAPPSPAGSEGLGRAGVAVGGARGDPAEAADERFPACIRDAVSQVLKGYDWSLVPMPVRGGGGGALKAKPHVKRPMNAFMVWAQAARRKLADQYPHLHNAELSKTLGKLWRLLSESEKRPFVEEAERLRVQHKKDHPDYKYQPRRRKSAKAGHSDSDSGAELGPHPGGGAVYKAEAGLGDGHHHGDHTGQTHGPPTPPTTPKTELQQAGAKPELKLEGRRPVDSGRQNIDFSNVDISELSSEVMGTMDAFDVHEFDQYLPLGGPAPPEPGQAYGGAYFHAGASPVWAHKSAPSASASPTETGPPRPHIKTEQPSPGHYGDQPRGSPDYGSCSGQSSATPAAPAGPFAGSQGDYGDLQASSYYGAYPGYAPGLYQYPCFHSPRRPYASPLLNGLALPPAHSPTSHWDQPVYTTLTRP

These binders were tested against nucleoprotein N of Crimean-Congo hemorrhagic fever virus (assay: AlphaScreen luminescence signal relative to Venus negative control (fold); higher = stronger binding to CCHFV N).
Experimental: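 AlphaScreen binding of cell-free made, FLAG-GST-tagged human transcription factors and regulators (crude translation products) to biotinylated N protein; signal as fold of the FLAG-GST-Venus control. One pass.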

Binder	AlphaScreen luminescence signal
B1	2.05
B2	1.81
B3	1.16
B4	1.63
B5	1.81
B6	2.79
B7	1.77
